Measured values published in the supplement of paper PMC4967469.

Columns and labels:
Assay in all cases: Viability of human cancer cell lines after 72 h of drug (GDSC screen)
OSU-03012 = compound: NCC(=O)Nc1ccc(-n2nc(C(F)(F)F)cc2-c2ccc3c(ccc4ccccc43)c2)cc1 [OSU-03012]; details: top dose 16 µM; top dose inferred
Method: (§1)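 Human cancer cell lines in 384-well plates, medium with 10% serum, drug for 72 h over a 256-fold dose range (nine 2-fold or five 4-fold steps up to the top dose). Adherent lines were fixed and stained with the nucleic acid dye Syto60, suspension lines read with resazurin; signal relative to control wells, capped at 0 and 100%. One two-parameter sigmoid per drug and line, fitted in a mixed model over all curves with the slope shared within a line.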

CUDC-101 = compound: C#Cc1cccc(Nc2ncnc3cc(OC)c(OCCCCCCC(=O)NO)cc23)c1 [CUDC-101]; details: top dose 5.12 µM; top dose inferred
Method: as §1

AC220 = compound: CC(C)(C)c1cc(NC(=O)Nc2ccc(-c3cn4c(n3)sc3cc(OCCN5CCOCC5)ccc34)cc2)no1 [AC220]; details: top dose 1.024 µM; top dose inferred
Method: as §1

QS11 = compound: OC[C@H](Cc1ccccc1)Nc1nc(Oc2ccc3c(c2)CCC3)nc2c1ncn2Cc1ccc(-c2ccccc2)cc1 [QS11]; details: top dose 10.24 µM
Method: as §1

RDEA119 = compound: COc1cc(F)c(F)c(Nc2ccc(I)cc2F)c1NS(=O)(=O)C1(C[C@H](O)CO)CC1 [RDEA119]; details: top dose 5 µM, top dose inferred
Method: as §1

JNK-9L = compound: Fc1cc(-c2ccnc(Nc3ccc(-n4cnc(N5CCOCC5)n4)cc3)n2)cc(N2CCOCC2)c1 [JNK-9L]; details: top dose 5.12 µM; top dose inferred
Method: as §1

5-Fluorouracil = compound: O=c1[nH]cc(F)c(=O)[nH]1 [5-Fluorouracil]; details: top dose 32 µM; top dose inferred
Method: as §1

Row | Cell Line | AUC (OSU-03012) | IC50 (OSU-03012) [nM] | AUC (CUDC-101) | IC50 (CUDC-101) [nM] | AUC (AC220) | IC50 (AC220) [nM] | AUC (QS11) | IC50 (QS11) [nM] | AUC (RDEA119; screen: GDSC drug entry 1014) | IC50 (RDEA119; screen: GDSC drug entry 1014) [nM] | AUC (RDEA119; screen: GDSC drug entry 1526) | IC50 (RDEA119; screen: GDSC drug entry 1526) [nM] | AUC (JNK-9L) | IC50 (JNK-9L) [nM] | AUC (5-Fluorouracil) | IC50 (5-Fluorouracil) [nM]
1 | 22RV1 (prostate, adherent) | 0.737 | 5710 | 0.326 | 92.2 | 0.981 | > 1020 | 0.858 | > 10200 | 0.89 | > 5000 | 0.908 | > 5000 | 0.683 | 1190 | 0.487 | 1820
2 | SR (lymphoid neoplasm, suspension) | 0.64 | 2330 | 0.114 | 22 | 0.981 | > 1020 | 0.884 | 9130 | 0.904 | > 5000 | 0.955 | > 5000 | 0.354 | 132 | 0.297 | 573
3 | TGBC11TKB (stomach, adherent) | 0.87 | 11900 | 0.804 | 2210 | 0.992 | > 1020 | 0.953 | > 10200 | 0.692 | 1000 | 0.876 | 3950 | 0.711 | 1160 | 0.946 | > 32000
4 | MOLP-8 (myeloma, suspension) | 0.724 | 4190 | 0.219 | 50.2 | 0.964 | > 1020 | 0.742 | 3060 | 0.765 | 1760 | 0.813 | 2570 | 0.347 | 123 | 0.511 | 2150
5 | HCC1395 (breast, adherent) | 0.749 | 6110 | 0.9 | > 5120 | 0.983 | > 1020 | 0.93 | > 10200 | 0.934 | > 5000 | 0.9 | > 5000 | 0.591 | 599 | 0.972 | > 32000
6 | SK-MES-1 (lung squamous cell carcinoma, adherent) | 0.639 | 2510 | 0.478 | 277 | 0.983 | > 1020 | 0.787 | 4880 | 0.718 | 1380 | 0.737 | 1590 | 0.395 | 161 | 0.912 | > 32000
7 | TGW (neuroblastoma, adherent) | 0.788 | 5970 | 0.384 | 161 | 0.992 | > 1020 | 0.965 | > 10200 | 0.899 | 4750 | 0.976 | > 5000 | 0.748 | 1450 | 0.789 | 12000
8 | MZ7-mel (melanoma, adherent) | 0.824 | 9950 | 0.329 | 105 | 0.973 | > 1020 | 0.803 | 5290 | 0.455 | 235 | 0.395 | 160 | 0.661 | 914 | 0.778 | 13400
9 | LS-180 (large intestine, adherent) | 0.662 | 3030 | 0.593 | 600 | 0.979 | > 1020 | 0.823 | 7170 | 0.651 | 872 | 0.715 | 1400 | 0.572 | 518 | 0.881 | > 32000
10 | PCI-38 (head and neck, adherent) | 0.878 | > 16000 | 0.613 | 657 | 0.976 | > 1020 | 0.987 | > 10200 |  |  | 0.821 | 2920 | 0.498 | 317 | 0.754 | 10900
11 | U-698-M (B-cell leukaemia, suspension) | 0.654 | 2670 | 0.684 | 1040 | 0.984 | > 1020 | 0.879 | > 10200 | 0.985 | > 5000 | 0.986 | > 5000 | 0.463 | 254 | 0.813 | 17300
12 | EW-24 (Ewing sarcoma, semi-adherent) | 0.868 | 11700 | 0.559 | 454 | 0.993 | > 1020 | 0.983 | > 10200 | 0.991 | > 5000 | 0.992 | > 5000 | 0.851 | 3210 | 0.973 | > 32000
13 | PCI-6A (head and neck, adherent) | 0.662 | 2780 | 0.269 | 71.6 | 0.985 | > 1020 | 0.886 | > 10200 | 0.759 | 1720 | 0.949 | > 5000 | 0.546 | 427 | 0.836 | 20600
14 | EN (endometrium, adherent) | 0.841 | 15700 | 0.607 | 683 | 0.959 | > 1020 | 0.982 | > 10200 | 0.961 | > 5000 |  |  | 0.762 | 2300 | 0.857 | > 32000
15 | H-EMC-SS (chondrosarcoma, adherent) | 0.856 | > 16000 | 0.981 | > 5120 | 0.957 | > 1020 | 0.945 | > 10200 | 0.675 | 1120 |  |  | 0.745 | 2030 | 0.852 | > 32000
16 | NCI-H2347 (lung adenocarcinoma, adherent) | 0.733 | 5400 | 0.632 | 802 | 0.983 | > 1020 | 0.902 | > 10200 | 0.586 | 565 | 0.638 | 822 | 0.596 | 623 | 0.945 | > 32000
17 | ETK-1 (biliary tract, adherent) | 0.595 | 1890 | 0.554 | 459 | 0.982 | > 1020 | 0.848 | 9250 | 0.81 | 3070 | 0.899 | > 5000 | 0.577 | 534 | 0.651 | 5580

By IC50 is meant the dose at which the fit gives 50% viability; where the fit passes the top or lowest dose, that dose stands as a limit. AUC sums up the same curve from the lowest dose to the 256-fold higher top dose: 1 means no effect, lower means more sensitive. For some assays here: A top dose marked as inferred comes from the curve model; the source does not state it. For some assays here: An entry number marks a drug with two screens in the source, which often give different values.
